# For some assays here: Shown are results outside the selection of strong results, which stands elsewhere. The list shows a part of the results, in another mix than the full data.
# What was measured:
# Conditions in all cases: concentration: 1 μM,replicates: in singlicate; n = 1
# DAPK3 = tested on: DAPK3
# DCAMKL1 = tested on: T1, DCAMKL1
# T1 construct: gene DCLK1
# DCAMKL2 = tested on: T2, DCAMKL2
# T2 construct: gene DCLK2
# DCAMKL3 = tested on: T3, DCAMKL3
# T3 construct: gene DCLK3
# DDR1 = tested on: DDR1
# DDR2 = tested on: DDR2
# DLK = tested on: T4, DLK
# T4 construct: gene MAP3K12
# DMPK2 = tested on: T5, DMPK2
# T5 construct: gene CDC42BPG
# DMPK = tested on: DMPK
# DRAK1 = tested on: T6, DRAK1
# T6 construct: gene STK17A
# 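Note: KINOMEscan kinase panel screen.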
smiles,measurement,setting,value
O=C1NC(=O)C(c2ccccc2Cl)=C1Nc1ccccc1 [SB-376715],%Inh,DAPK3,12%
same,%Inh,DCAMKL1,0%
same,%Inh,DCAMKL2,0%
same,%Inh,DCAMKL3,45%
same,%Inh,DDR1,0%
same,%Inh,DDR2,16%
same,%Inh,DLK,9%
same,%Inh,DMPK2,0%
same,%Inh,DMPK,29%
same,%Inh,DRAK1,2%
COc1ccc(C2=C(Nc3cccc(Cl)c3)C(=O)NC2=O)cc1 [SB-326892],%Inh,DAPK3,0%
same,%Inh,DCAMKL1,6%
same,%Inh,DCAMKL2,0%
same,%Inh,DCAMKL3,32%
same,%Inh,DDR1,0%
same,%Inh,DDR2,0%
same,%Inh,DLK,5%
same,%Inh,DMPK2,0%
same,%Inh,DMPK,0%
same,%Inh,DRAK1,4%
COc1cccc(C2=C(Nc3ccc(SC)cc3)C(=O)NC2=O)c1 [SB-331032],%Inh,DAPK3,20%
same,%Inh,DCAMKL1,21%
same,%Inh,DCAMKL2,7%
same,%Inh,DCAMKL3,9%
same,%Inh,DDR1,0%
same,%Inh,DDR2,32%
same,%Inh,DLK,0%
same,%Inh,DMPK2,11%
same,%Inh,DMPK,25%
same,%Inh,DRAK1,0%
O=C1NC(=O)C(c2ccccc2)=C1Nc1ccc(Cl)c(C(=O)O)c1 [SB-390532],%Inh,DAPK3,20%
same,%Inh,DCAMKL1,18%
same,%Inh,DCAMKL2,1%
same,%Inh,DCAMKL3,2%
same,%Inh,DDR1,0%
same,%Inh,DDR2,45%
same,%Inh,DLK,38%
same,%Inh,DMPK2,0%
same,%Inh,DMPK,0%
same,%Inh,DRAK1,1%
O=C1NC(=O)C(c2ccccc2)=C1Nc1cc(Cl)c(O)c(Cl)c1 [SB-390530],%Inh,DAPK3,0%
same,%Inh,DCAMKL1,0%
same,%Inh,DCAMKL2,0%
same,%Inh,DCAMKL3,27%
same,%Inh,DDR1,0%
same,%Inh,DDR2,0%
same,%Inh,DLK,0%
same,%Inh,DMPK2,0%
same,%Inh,DMPK,0%
same,%Inh,DRAK1,0%
Cc1cc(C)cc(Oc2nccc(-c3c(-c4ccc(F)cc4)ncn3C3CCNCC3)n2)c1.O=C(O)C(F)(F)F.O=C(O)C(F)(F)F.O=C(O)C(F)(F)F [SB-284851],%Inh,DAPK3,16%
same,%Inh,DCAMKL1,33%
same,%Inh,DCAMKL2,0%
same,%Inh,DCAMKL3,6%
same,%Inh,DDR1,0%
same,%Inh,DDR2,39%
same,%Inh,DLK,0%
same,%Inh,DMPK2,79%
same,%Inh,DMPK,0%
same,%Inh,DRAK1,0%
O=C1NC(=O)C(c2ccc(Cl)cc2)=C1Nc1ccccc1 [SB-317661],%Inh,DAPK3,22%
same,%Inh,DCAMKL1,16%
same,%Inh,DCAMKL2,0%
same,%Inh,DCAMKL3,0%
same,%Inh,DDR1,0%
same,%Inh,DDR2,14%
same,%Inh,DLK,13%
same,%Inh,DMPK2,0%
same,%Inh,DMPK,0%
same,%Inh,DRAK1,0%
CS(=O)(=O)c1ccccc1-c1nc(-c2ccc(F)cc2)c(-c2ccncc2)[nH]1 [SB-213663],%Inh,DAPK3,0%
same,%Inh,DCAMKL1,0%
same,%Inh,DCAMKL2,4%
same,%Inh,DCAMKL3,0%
same,%Inh,DDR2,58%
same,%Inh,DLK,12%
same,%Inh,DMPK2,87%
same,%Inh,DMPK,29%
same,%Inh,DRAK1,0%
CSc1ccc(NC2=C(c3cccc(Cl)c3)C(=O)NC2=O)cc1 [SB-341528],%Inh,DAPK3,0%
same,%Inh,DCAMKL1,28%
same,%Inh,DCAMKL2,10%
same,%Inh,DCAMKL3,0%
same,%Inh,DDR1,0%
same,%Inh,DDR2,24%
same,%Inh,DLK,0%
same,%Inh,DMPK2,0%
same,%Inh,DMPK,0%
same,%Inh,DRAK1,1%
O=C1NC(=O)C(c2ccccc2Cl)=C1Nc1cccc(C(=O)O)c1 [SB-390526],%Inh,DAPK3,0%
same,%Inh,DCAMKL1,3%
same,%Inh,DCAMKL2,0%
same,%Inh,DCAMKL3,1%
same,%Inh,DDR1,13%
same,%Inh,DDR2,24%
same,%Inh,DLK,16%
same,%Inh,DMPK2,0%
same,%Inh,DMPK,1%
same,%Inh,DRAK1,0%
Cc1ccc(C)c(Oc2nccc(-c3c(-c4ccc(F)cc4)ncn3C3CCNCC3)n2)c1.O=C(O)C(F)(F)F.O=C(O)C(F)(F)F.O=C(O)C(F)(F)F [SB-284852],%Inh,DAPK3,0%
same,%Inh,DCAMKL1,23%
same,%Inh,DCAMKL2,0%
same,%Inh,DCAMKL3,23%
same,%Inh,DDR1,2%
same,%Inh,DLK,0%
same,%Inh,DMPK2,94.8%
same,%Inh,DMPK,4%
same,%Inh,DRAK1,0%
O=C1NC(=O)c2c1c(-c1ccccc1)cc1[nH]c3ccc(O)cc3c21,%Inh,DAPK3,7%
same,%Inh,DCAMKL1,18%
same,%Inh,DCAMKL2,23%
same,%Inh,DCAMKL3,91.5%
same,%Inh,DDR1,0%
same,%Inh,DDR2,3%
same,%Inh,DLK,14%
same,%Inh,DMPK2,3%
same,%Inh,DMPK,98.4%
same,%Inh,DRAK1,85%
O=C1NC(=O)C(c2ccc(Cl)cc2)=C1Nc1cccc(C(=O)O)c1 [SB-360737],%Inh,DAPK3,0%
same,%Inh,DCAMKL1,14%
same,%Inh,DCAMKL2,0%
same,%Inh,DCAMKL3,0%
same,%Inh,DDR1,10%
same,%Inh,DDR2,1%
same,%Inh,DLK,5%
same,%Inh,DMPK2,7%
same,%Inh,DMPK,0%
same,%Inh,DRAK1,0%
O=C1NC(=O)C(c2ccc(Cl)cc2)=C1Nc1ccc(O)c(Cl)c1 [SB-405367],%Inh,DAPK3,0%
same,%Inh,DCAMKL1,32%
same,%Inh,DCAMKL2,0%
same,%Inh,DCAMKL3,4%
same,%Inh,DDR1,64%
same,%Inh,DDR2,0%
same,%Inh,DLK,0%
same,%Inh,DMPK2,0%
same,%Inh,DMPK,0%
same,%Inh,DRAK1,0%
O=C(O)c1ccc(-c2nc(-c3ccc(F)cc3)c(-c3ccncc3)[nH]2)cc1 [SB-202620],%Inh,DAPK3,17%
same,%Inh,DCAMKL1,49%
same,%Inh,DCAMKL2,8%
same,%Inh,DCAMKL3,20%
same,%Inh,DDR1,75%
same,%Inh,DDR2,79%
same,%Inh,DLK,0%
same,%Inh,DMPK2,21%
same,%Inh,DMPK,31%
same,%Inh,DRAK1,1%
O=C1NC(=O)C(c2ccc(Cl)cc2)=C1Nc1cccc(O)c1 [SB-333613],%Inh,DAPK3,28%
same,%Inh,DCAMKL1,5%
same,%Inh,DCAMKL2,18%
same,%Inh,DCAMKL3,0%
same,%Inh,DDR1,17%
same,%Inh,DDR2,36%
same,%Inh,DLK,5%
same,%Inh,DMPK2,3%
same,%Inh,DMPK,3%
same,%Inh,DRAK1,18%
